Experimental data from a collection of fitness landscapes (doi:10.1016/j.celrep.2020.107928).
Whole data set: some 81,000 sequences, median “one-hybrid fitness for binding parS DNA” near -0.17, cut for the highest 2% near 0.51. Some of the results follow.

B1: Caulobacter ParB omega fusion; a variant is named by its letters at X, in order, B8GW30 (parent)
chain: MESVVVGEPGMSEGRRGLGRGLSALLGEVDAAPAQAPGEQLGGSREAPIEILQRNPDQPRRTFREEDLEDLSNSIREKGVLQPILVRPSPDTAGEYQIVAGERAWRAAQRAGLKTVPIMVRELDDLAVLEIGIIENVQRADLNVLEEALSYKVLMEKFERTQENIAQTIGKSXSHVANXMRLLXLPDEVQSYLVSGELTAXHARAIAAAADPVALAKQIIEGGLSVRETEALARKAPNLSAGKSKGGRPPRVKDTDTQALESDLSSVLGLDVSIDHRGSTGTLTITYATLEQLDDLCNRLTRGI

Variants of: B1
Test: one-hybrid fitness for binding parS DNA (scaled: cognate 1, non-cognate 0); higher = stronger binding
Settings: with parS DNA site
How it was run: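 Bacterial one-hybrid selection in E. coli USO rpoZ- hisB- pyrF- with a HIS3 reporter carrying the site 19 bp from the promoter, screening Caulobacter ParB libraries with four specificity codons randomised (NNS). Cells grew 48 hours at 37°C on M9-minus-histidine plus 0.1 mM IPTG and 5 mM 3-AT. Plasmids before and after selection were Illumina-sequenced, three replicate libraries pooled, and variants under 10 reads dropped. Fitness is the log change in variant-to-wild-type read ratio, rescaled to cognate 1, non-cognate 0.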

Variant	one-hybrid fitness for binding parS DNA
TSTK	≤ 0.2
NRCG	≤ 0.2
RHAW	0.219
CLAA	≤ 0.2
PWPD	≤ 0.2
KGTS	≤ 0.2
LYRV	≤ 0.2
SLRF	≤ 0.2
NLDG	≤ 0.2
TLDI	≤ 0.2
QPKS	≤ 0.2
IWRR	≤ 0.2
NLRV	≤ 0.2
CVKS	≤ 0.2
NKYF	≤ 0.2
NWHG	≤ 0.2
WTDT	≤ 0.2
GYPA	≤ 0.2
DLGV	≤ 0.2
MTRG	≤ 0.2
PWTY	≤ 0.2
CCHS	≤ 0.2
RMFV	≤ 0.2
CSHC	≤ 0.2
GSFS	≤ 0.2

Variant	one-hybrid fitness for binding parS DNA
NKVQ	≤ 0.2
CRDV	≤ 0.2
EPTR	≤ 0.2
CPAA	≤ 0.2
KRGM	≤ 0.2
DIRT	≤ 0.2
MVIP	≤ 0.2
NMQS	≤ 0.2
HVTI	≤ 0.2
KRSD	≤ 0.2
LPLW	≤ 0.2
FDAE	≤ 0.2
ACRC	≤ 0.2
SNEC	≤ 0.2
ETKS	≤ 0.2
ATMT	≤ 0.2
QWKF	≤ 0.2
PQRS	≤ 0.2
YTRC	≤ 0.2
WVMV	≤ 0.2
DMPT	≤ 0.2
GCLT	≤ 0.2
NIQM	≤ 0.2
RNKL	≤ 0.2
RDYS	≤ 0.2

Variant	one-hybrid fitness for binding parS DNA
SIEF	≤ 0.2
KTNQ	≤ 0.2
QNPN	≤ 0.2
RTWH	0.254
AKYS	≤ 0.2
TIYV	≤ 0.2
PRGP	≤ 0.2
PLNY	≤ 0.2
VRRK	≤ 0.2
TDSW	≤ 0.2
LGET	≤ 0.2
GISA	≤ 0.2
DGRF	≤ 0.2
VYQR	≤ 0.2
YVML	≤ 0.2
TNKH	≤ 0.2
QCFT	≤ 0.2
HKRV	≤ 0.2
YNAS	≤ 0.2
LYMT	≤ 0.2
VSVL	≤ 0.2
PVPR	≤ 0.2
YTCR	≤ 0.2
DCPY	≤ 0.2
YHKY	≤ 0.2

Variant	one-hybrid fitness for binding parS DNA
QRWS	≤ 0.2
RRGT	0.566
GYFS	≤ 0.2
CLEF	≤ 0.2
QVQN	≤ 0.2
DRIC	≤ 0.2
DQYD	≤ 0.2
HVLS	≤ 0.2
WNDI	≤ 0.2
RMHK	≤ 0.2
FNPM	≤ 0.2
VLVL	≤ 0.2
SSYF	≤ 0.2
YPGG	≤ 0.2
WENS	≤ 0.2
TGMF	≤ 0.2
VWNY	≤ 0.2
RPHF	≤ 0.2
EHKS	≤ 0.2
SSTL	≤ 0.2
QKWS	≤ 0.2
DMTR	≤ 0.2
CYTF	≤ 0.2
NCSM	≤ 0.2
PETF	≤ 0.2

Variant	one-hybrid fitness for binding parS DNA
RFGM	0.273
YHTP	≤ 0.2
PCPK	≤ 0.2
IVVF	≤ 0.2
DYFM	≤ 0.2
QVLW	≤ 0.2
MTYT	≤ 0.2
YACT	≤ 0.2
GSVR	≤ 0.2
DNLI	≤ 0.2
AHAP	≤ 0.2
HEQR	≤ 0.2
LWRR	≤ 0.2
LIHM	≤ 0.2
VSPW	≤ 0.2
TDIF	≤ 0.2
DQYT	≤ 0.2
RATR	≤ 0.2
PKPQ	≤ 0.2
TTHV	≤ 0.2
RDFI	≤ 0.2
PRRR	≤ 0.2
IGGI	≤ 0.2
YAHT	≤ 0.2
ARCN	≤ 0.2

Variant	one-hybrid fitness for binding parS DNA
VIKS	≤ 0.2
LVCF	≤ 0.2
MSSV	≤ 0.2
FDWS	≤ 0.2
QRTY	≤ 0.2
PYYI	≤ 0.2
RVNA	0.602
FVGG	≤ 0.2
GREM	≤ 0.2
ELMD	≤ 0.2
CHQG	0.278
DYLR	≤ 0.2
ELDC	≤ 0.2
CWSG	≤ 0.2
WQEV	≤ 0.2
EYLT	≤ 0.2
TYNP	≤ 0.2
RSLT	0.846
NMWR	≤ 0.2
VEIG	≤ 0.2
IPQG	≤ 0.2
PLLF	≤ 0.2
TDVV	≤ 0.2
ALRH	≤ 0.2
FEMS	≤ 0.2

Variant	one-hybrid fitness for binding parS DNA
RYAC	0.925
NPMM	≤ 0.2
QLTS	≤ 0.2
AKKT	≤ 0.2
IFFR	≤ 0.2
FGLE	0.28
FQTR	≤ 0.2
GMFG	≤ 0.2
SNEV	≤ 0.2
LNYC	≤ 0.2
LGIS	≤ 0.2
IHNS	≤ 0.2
AYKT	≤ 0.2
NEQR	≤ 0.2
HPCG	≤ 0.2
KHYV	≤ 0.2
LPEY	≤ 0.2
EDLC	≤ 0.2
QGKS	≤ 0.2
CRQA	≤ 0.2
HACA	≤ 0.2
PYLM	≤ 0.2
RVST	0.92
TKRW	≤ 0.2
ICLF	≤ 0.2

Variant	one-hybrid fitness for binding parS DNA
QCDG	≤ 0.2
RWYV	≤ 0.2
EPGL	≤ 0.2
YKLV	≤ 0.2
RQDL	≤ 0.2
SLGY	≤ 0.2
DMGT	≤ 0.2
WPAF	≤ 0.2
FLQS	≤ 0.2
LARV	≤ 0.2
RRQK	≤ 0.2
KPYR	≤ 0.2
QSDY	≤ 0.2
PFNA	≤ 0.2
ACNS	≤ 0.2
SAKI	≤ 0.2
QATH	≤ 0.2
PIYG	≤ 0.2
VSSW	≤ 0.2
PNQG	≤ 0.2
